Patent US5010005A, “Bio-oxidation of high alcohols in non-aqueous reaction media” (priority 1989, dated 1991)
At least one read-out could not be matched to a standard name with certainty.

How the values were obtained:
[1] = tested on: whole cells of Pichia pastoris; assay: Conversion of higher alcohols by whole cells of Pichia pastoris in two-phase (hexane/water) reaction system; type: cell-based
Method: Growth of the organism was carried out in Erlenmeyer shake flasks at 30° C. on a reciprocal shaker (200 rpm). After 72 hrs growth, biomass was harvested by centrifugation (4000 g, 5 min) washed with 0.1 M phosphate buffer pH 8, and resuspended in 0.5 M Tris buffer (pH 8).
The method of conversion of higher alcohols using whole cells in a two-phase reaction system was as follows. One gram of Pichia pastoris cell paste (pellet resulting from a 10 minute, 9154 g centrifugation) was placed in a 125 ml serum vial and dispersed in 2 ml of H2 O (aqueous phase).
Then 48 ml of hexane containing the substrate (concentration in Table 1) were added to form the organic phase. The reaction was conducted as described above. Samples from the organic phase were withdrawn at the indicated times (Table 1) and the concentration of aldehyde product determined by gas chromatography.
The carrier gas was helium and the column was run isothermally at 220° C. For aqueous reaction systems the internal standard was isopropyl alcohol (20 g/L). In non-aqueous systems octanol (20 g/L) was dissolved in the appropriate solvent and used as internal standard.

[2] = tested on: whole cells of Pichia pastoris; assay: Conversion of alcohols by whole cells of Pichia pastoris in aqueous reaction media; type: cell-based; settings: alcohol 10 g/L; reaction time 12 h
Method: Pichia pastoris was obtained from the American Type Culture Collection, Rockville, Maryland, U.S.A. (ATCC 28485). The growth and maintenance medium consisted of: KH2 PO4 2.6 g/L; K2 HPO4 0.3 g/L; (NH4)2 SO4 1.5 g/L; MgSO4.7 ·H2 O 0.3 g/L; Difco yeast extract 1.9 g/L; FeSO4 ·7H2 O 1 mg/L; CuSO4 ·5H2 O 5 μg/L; H3 BO3 10 μg/L; MnSO4 ·H2 O 10 μg/L; ZnSO4 ·7H2 O 70 μg/L: NaMoO4 ·2H2 O 10 μg/L. After the medium was autoclaved and cooled, methanol (10 g/L) and a vitamin solution (J.P. van der Walt and A.E. van Kerken, Antonie van Leeuwenkoek 27: 81-90, 1961) (2 mL) were added. Growth of the organism was carried out in Erlenmeyer shake flasks at 30° C. on a reciprocal shaker (200 rpm). After 72 hrs growth, biomass was harvested by centrifugation (4000 g, 5 min) washed with 0.1 M phosphate buffer pH 8, and resuspended in 0.5 M Tris buffer (pH 8).
Unless otherwise stated, the reaction conditions for whole cell systems in aqueous solution (0.5M Tris pH 8) were as follows: 25 ml of the biomass suspension was dispensed into 125 mL serum vials and the substrate was added to the concentration listed in Table 1. The final biomass concentration was 5 g/L. The vials were flushed with oxygen, capped and sealed to prevent loss of reactants or products from the system. The vials were pressurized with oxygen (15 psig) and shaken (200 rpm) at 30° C. during the reaction. […]

[3] = alcohol 20 g/L, reaction time 24 h
[4] = alcohol 20 g/L, reaction time 6 h
[5] = alcohol 10 g/L, reaction time 24 h

| SMILES | Aldehyde concentration, 2-phase [1, 3] [g/L] | Aldehyde concentration, 2-phase [1, 4] [g/L] | further results |
| --- | --- | --- | --- |
| CCCCCCCCCCO [decanol] | 0.7 |  |  |
| CCCCCCCCCO [nonanol] | 0.7 | 0.4 |  |
| OCCCc1ccccc1 [3-phenyl-1-propanol] |  |  | Aldehyde concentration, aqueous [2]: 0.8 g/L; Aldehyde concentration, 2-phase ([1]; alcohol 10 g/L, reaction time 6 h): 3.56 g/L; Aldehyde concentration, 2-phase [1, 5]: 5.40 g/L |
| CCCCCCCCO [octanol] | 9.5 | 5.4 |  |
| CCCCCCCO [heptanol] | 10.3 | 8.3 |  |
| CCCCCCCCCCCO [undecanol] |  |  | Aldehyde concentration, 2-phase ([1]; alcohol 20 g/L, reaction time 72 h): 0.4 g/L |
| OCCc1ccccc1 [phenethyl alcohol] |  |  | Aldehyde concentration, aqueous [2]: 0.2 g/L; Aldehyde concentration, 2-phase [1, 5]: 0.2 g/L |
